# The campaign covered roughly 150,000 compounds. About 540 (0.36%) showed an effect of 50% or more. The list shows a part of the results.
# Tested on: Plasmodium falciparum
# Assay: Primary screen in NF54 nanoGlo assay, in single point, at 2uM, 72h; a lower Z score goes with more inhibition
# Type: functional, Erythrocyte
# Settings: timepoint 72 hour
SMILES,% Inhibition,Z score
CCc1ccc([C@@H]2COCCN2C(=O)c2nnn(-c3ccc(C)cc3)c2C)o1,-6%,0.85
Cc1cc(-c2cc(S(=O)(=O)NCCc3ccc(Cl)cc3)c(C)s2)[nH]n1,-5%,0.93
CC1CN(C(=O)Nc2ccc(N3CC(C)OC(C)C3)cc2)CCO1 (stereo not drawn),-14%,1.28
O=C1CN(S(=O)(=O)c2ccc(Cl)c(Cl)c2)C[C@H]2c3ccccc3CCN12,0%,0.06
C[C@H]1CC[C@@](C)(C(=O)NCc2nnc[nH]2)C1(C)C,3%,-0.59
O=C(Nc1nonc1NC(=O)C(F)(F)F)C(F)(F)F,7%,-0.86
COc1nccc(CNC(=O)N2CCC3(CCCC3)C2)n1,33%,-3.69
COCc1c(C(=O)N[C@H]2CN(S(C)(=O)=O)C[C@@H]2C(C)C)noc1C,2%,-0.28
CCCNC1(Cc2cc(COC)on2)COC1,-10%,1.86
Cc1noc(C)c1CC(=O)N1C[C@@H]2C[C@H](NC(=O)c3ccccc3)[C@H]1C2,29%,-3.26
N#CCN(C(=O)Cn1c(C(F)(F)F)ccc(C(N)=O)c1=O)c1ccccc1,-8%,1.58
O=C(NCCOc1cccc(Cl)c1Cl)c1cncc(Br)c1,1%,-0.09
Cc1ccc(Cl)c(CN[C@H]2CCCN(Cc3cccc(O)c3)C2)c1F,-13%,2.09
Cc1ccoc1C(=O)N1CCNC[C@H]1C(=O)Nc1ccc(F)cc1,-17%,2.62
COc1cc(F)c(CN(Cc2cccnc2)C2CCN(C)CC2)cc1OC,-5%,0.89
CC(=O)Nc1c(-c2ccc(C)cc2)c(C)nn1-c1ccc(C(=O)Nc2cc(C)ccn2)cc1,59%,-6.89
C[C@H]1C(=O)N(c2ccc(F)c(Cl)c2)CCN1C(=O)CCc1ccccc1,-9%,1.09
CCOC(=O)N1CCc2c(sc(NCc3cccnc3)c2C(=O)Nc2ccccc2OCC)C1,2%,-0.39
CCc1ccccc1CNC(=O)C1CN(CC(F)F)C1,-3%,0.69
CC(C)NS(=O)(=O)[C@H]1CCN(Cc2cccn2C)C1,1%,-0.15
COc1ccc(C)cc1S(=O)(=O)N1CCC[C@H](c2nnc(C)s2)C1,-11%,1.66
CC1(C)C[C@]2(NC(=O)N(CC(=O)Nc3ccc4c(c3)CCC4)C2=O)C(C)(C)O1,-14%,2.81
CCN(CC)C(=O)C(=O)N1CCOCC1,5%,-0.63
N#Cc1ccc(CN2C[C@@H](CO)[C@H](NC(=O)c3cccnc3)C2)cc1,-8%,1.43
COCC1(Cn2cnc(-c3ccccc3)c2-c2cccs2)CC1,-8%,1.47
CC(C)c1noc(C(C)N2CC3CC=CCC3C2)n1 (stereo not drawn),-2%,0.26
COc1ccccc1-c1c(C)nn2c(N3CCc4ccccc4C3)cc(C)nc12,-7%,1.12

SMILES,% Inhibition,Z score
CC(=O)Nc1ccc(N2C(=O)c3cc(C)nn3C[C@@]2(C)C(=O)NCc2ccc(C)cc2)cc1,-17%,2.72
CCOc1ccccc1C(=O)Nc1ncn(CC(=O)N2CCCCCC2)n1,3%,-0.46
O=C1NC(=O)[C@H](CC(=O)N2CCc3sccc3C2)N1,0%,0
O=C(NCc1ccc(-c2nc(-c3ccc(F)cc3)no2)s1)c1ccccc1F,-3%,0.57
Cc1nc(CN2CCN(CCS(C)(=O)=O)CC2)nc2ccccc12,1%,-0.06
Cc1nnc([C@H](C)NCc2ccc(F)c(C)c2)[nH]1,-10%,1.99
COc1ncc(Cl)c(N2CCn3c(nnc3C(F)(F)F)C2)n1,-4%,0.58
C[C@H](NC(=O)CCc1ccc(F)cc1F)c1ccc2c(c1)CC(=O)N2,-7%,1.22
O=C1CCc2cc(NC(=O)N3CCC[C@H](c4cc(F)ccc4F)C3)ccc2N1,-6%,0.75
CCn1nccc1C=Cc1nc(=O)c(OC)c[nH]1,2%,-0.46
CCCCN1C(=O)C2C(CCC(N)=O)NC3(C(=O)Nc4ccc(F)cc43)C2C1=O (stereo not drawn),-4%,0.67
Cc1ccc(CNC(=O)Nc2ccc(N3CCNC(=O)C3)nc2)s1,-9%,1.73
Clc1cnc(N2CCN(C3CCC3)CC2)nc1,-4%,0.81
O=C(C1CCCCN1C(=O)C1CC2CCC1O2)N1CCCC1 (stereo not drawn),-6%,1.08
C[C@H](NC(=O)NC1CCCCC1)C(=O)N(C)C,-5%,0.95
CCc1nncn1CCNC(=O)N1CCC[C@H](C)CC1,-11%,1.32
O=C(O)Cc1cccc(NC(=O)[C@@H]2C[C@]23CCOc2ccccc23)c1,-6%,0.64
Cc1c(C(=O)NCc2ccc(Cl)cc2)cnn1-c1cc(-c2nc(C3CC3)no2)ccn1,-4%,0.65
CC(C)(C)c1cc(Cn2cnc(-c3ccccc3)c2[C@H]2CCOC2)n[nH]1,5%,-0.64
CCS(=O)(=O)NCCNc1ccc(-n2cccn2)nn1,-6%,0.68
CCn1ncnc1CNC(=O)c1ccc(C(N)=O)s1,-6%,0.78
O=C(NCc1ccc(F)cc1)C1Cc2cc(C(F)(F)F)ccc2N2CCN(c3ccccc3)CC12 (stereo not drawn),4%,-0.57
Cc1cccc2nnc(-c3cnc(-c4ccccc4)nc3)n12,-5%,0.71
O=C(NCCc1noc([C@@H]2CCCO2)n1)Nc1cccc(-n2cncn2)c1,-23%,2.96
Cc1cc(N2CC(C)OC(C)C2)ncn1 (stereo not drawn),-16%,2.38
Cc1ccc(C(=O)Nc2cccc(NC(=O)c3ccccc3)c2)c2ccccc12,-5%,0.61
CC(C)[C@H]1C(=O)N(C)CCN1C(=O)c1cccc(O)n1,-9%,1.86
